# According to PubChem BioAssay AID938 (National Center for Advancing Translational Sciences (NCATS), 2007):
# The whole screen tested about 73,000 compounds, of which about 1,800 (2.5%) were called active. The shares of active, inactive and inconclusive entries below differ from those in the screen. Calls follow the shape of the dose curve; as a rule, active = well fitted activation curve with a large enough effect; inconclusive = small, poorly fitted or top-dose-only effect; inactive = no such curve, though single readings can be large or run the other way. Potencies of inconclusive entries are left out as doubtful fits.
# Assay: qHTS Assay for Agonists of the Thyroid Stimulating Hormone Receptor: Activators of Intracellular cAMP Concentrations in Parental HEK 293; also: nearly all actives have a fitted effect of over 55% in size; as to activation: % of control where 0% means no effect
# Details: parental HEK293 CNG cAMP sensor, membrane potential fluorescence; activation: at 57.1 µM (top of the series) unless noted
# How it was run: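 Parental HEK 293 cells stably expressing a modified CNG channel (no TSHR) report cAMP rise as membrane depolarization. Membrane potential dye with 100 uM RO 20-1724 was loaded for 60 min at room temperature, then compound added for 30 min; fluorescence read at 590 nm.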
# Potency is read from the fitted curve at half-maximal effect; tags tell the direction and shape of the fitted curve.
Compound,Potency,activation
CC(=O)C(C)Oc1ccc2c3c(c(=O)oc2c1)CCCC3 (centres undefined),"inconclusive [activator, single point]",–
CCOC(=O)c1ccc(NC(=O)c2nn(CC)cc2Br)cc1,–,inactive: 2.82%
O=S(=O)(c1ccccc1)n1nc(-c2ccccc2)nc1NCc1ccco1,"inconclusive [activator, partial curve]",–
CCOC(=O)c1sc(NC(=O)c2ccc(Cl)s2)cc1C,–,inactive: 4.28%
CCc1c(C)c2ccc(OCC(=O)OC(C)C)c(C)c2oc1=O,active: 25.1 µM,–
CC1CCN(C(=O)C2CCN(C(=O)c3cc4sccc4n3Cc3ccc(F)cc3)CC2)CC1,"inconclusive [activator, partial curve]",–
COCCn1c(=O)c(-c2cn(C)c3ccccc23)nc2cnc(Oc3cccc(Cl)c3)nc21,"inconclusive [activator, partial curve, poor fit]",–
CCn1c(CNc2cccc(Cl)c2)nnc1SCc1ccccc1,"inconclusive [activator, single point]",–
CC(C)N(Cc1nc(-c2ccccc2)no1)C(=O)c1ccc(Cl)cc1,"inconclusive [activator, partial curve]",–
O=C(CSc1ncnc2nc[nH]c12)N1CCN(c2ccc(Cl)cc2)CC1,"inconclusive [activator, partial curve]",–
CCCC1(C(=O)O)NC(c2ccccc2O)C2C(=O)N(Cc3ccccc3)C(=O)C21 (centres undefined),"inconclusive [activator, single point]",–
COCCN(C(=O)C(F)(F)F)C(C(=O)NC1CCCCC1)c1ccco1 (centres undefined),"inconclusive [activator, single point]",–
COCCn1c(=O)c(-c2ccccc2)nc2cnc(OCc3ccccc3)nc21,"inconclusive [activator, single point]",–
CCOc1ccc(S(=O)(=O)n2cnc3cc(C)c(C)cc32)cc1,–,inconclusive: 30.4% [activator]
COc1cc(C2C(C#N)=C(N)Oc3c2oc(CO)cc3=O)ccc1OC(C)C (centres undefined),–,inactive: -10.7%
CCCn1c(NC(=O)c2ccc(Cl)c(S(=O)(=O)N3CCCC3)c2)nc2ccccc21,active: 15.8 µM,–
CCc1ccc(NC(=O)CSc2nnc(CNC(=O)c3c(F)cccc3Cl)o2)cc1,"inconclusive [activator, single point]",–
CCCc1ccc(OCc2ccc(C(=O)N3CCN(c4ccccn4)CC3)o2)c(OC)c1,"inconclusive [activator, single point]",–
CCCN(CCC)C(C(=O)Nc1cccc(OC)c1)c1ccccc1 (centres undefined),active: 25.1 µM,–
